According to article PMC4336329 (PLoS ONE, 2015):
About 2,200 (0.71%) of roughly 310,000 compounds showed an effect of 50% or more. The effect is printed as a negative number. This is one part of the list.

What follows are molecules tested against human ether-à-go-go-related gene (hERG) potassium channel (human, UniProt Q12809) (assay: primary screen, population patch clamp on CHO cells stably expressing hERG).
Sequence of human ether-à-go-go-related gene (hERG) potassium channel (Q12809 whole entry, looked up): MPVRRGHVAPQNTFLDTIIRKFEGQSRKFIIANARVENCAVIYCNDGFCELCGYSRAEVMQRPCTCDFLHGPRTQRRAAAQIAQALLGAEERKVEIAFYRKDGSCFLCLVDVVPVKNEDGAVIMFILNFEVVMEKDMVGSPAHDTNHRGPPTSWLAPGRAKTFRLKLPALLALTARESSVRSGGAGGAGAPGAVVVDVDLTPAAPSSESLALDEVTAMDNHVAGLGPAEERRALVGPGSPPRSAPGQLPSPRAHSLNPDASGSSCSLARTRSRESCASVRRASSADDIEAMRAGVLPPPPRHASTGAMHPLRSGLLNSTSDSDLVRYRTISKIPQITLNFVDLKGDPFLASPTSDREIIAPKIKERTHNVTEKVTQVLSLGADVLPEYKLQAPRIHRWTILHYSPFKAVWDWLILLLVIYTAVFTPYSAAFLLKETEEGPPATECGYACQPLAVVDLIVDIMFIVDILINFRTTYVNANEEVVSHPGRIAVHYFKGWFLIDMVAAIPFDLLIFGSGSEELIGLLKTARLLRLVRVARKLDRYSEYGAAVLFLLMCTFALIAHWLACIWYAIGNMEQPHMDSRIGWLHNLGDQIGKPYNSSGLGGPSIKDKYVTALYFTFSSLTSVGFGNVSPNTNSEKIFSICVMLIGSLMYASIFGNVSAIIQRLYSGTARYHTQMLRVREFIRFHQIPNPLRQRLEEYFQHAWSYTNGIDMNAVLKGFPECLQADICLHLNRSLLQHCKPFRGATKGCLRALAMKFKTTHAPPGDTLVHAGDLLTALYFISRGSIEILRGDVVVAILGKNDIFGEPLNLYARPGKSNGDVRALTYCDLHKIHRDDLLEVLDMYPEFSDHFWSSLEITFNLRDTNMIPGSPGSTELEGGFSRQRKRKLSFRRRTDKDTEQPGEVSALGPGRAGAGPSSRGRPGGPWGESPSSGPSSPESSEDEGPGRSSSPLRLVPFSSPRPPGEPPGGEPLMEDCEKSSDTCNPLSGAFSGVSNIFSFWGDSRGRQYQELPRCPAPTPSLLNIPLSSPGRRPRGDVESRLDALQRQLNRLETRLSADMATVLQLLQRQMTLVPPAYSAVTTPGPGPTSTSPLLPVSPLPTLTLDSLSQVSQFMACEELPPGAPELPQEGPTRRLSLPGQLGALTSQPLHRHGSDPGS

Row | Structure (SMILES) | hERG current change (%, negative = inhibition) at 1uM [%]
1 | CCOC(=O)CSc1nc2c(c(=O)[nH]c(=O)n2C)n1CCc1ccccc1 | 4.16
2 | Cc1ccc2nc(CSc3nnc(-c4ccco4)o3)cc(=O)n2c1 | -54
3 | COc1cccc(COC(=O)c2nn(-c3ccccc3)nc2N)c1 | 4.72
4 | COc1ccc(OC)c(NC(=S)N2CCN(Cc3ccccc3)CC2)c1 | 15.3
5 | CCOC(=O)C1CSc2[nH]c(=O)sc2C1c1ccccc1 (stereo not shown) | -8.94
6 | c1cnc(SCCOc2ccc3c(c2)CCC3)nc1 | 12.3
7 | COc1ccc(C(CC(=O)O)NC(=O)c2cccs2)cc1 (stereo not shown) | 7.83
8 | OC1(CC#CCN2CCCCC2)c2ccccc2-c2ccccc21 | 4.27
9 | C=C(C)C1CC=C(C)/C(=N/NC(=O)c2cccc([N+](=O)[O-])c2)C1 (stereo not shown) | 14.9
10 | COc1ccc(C(CNC(=O)C(CCSC)NC(=O)c2ccccc2Cl)N2CCCC2)cc1 (stereo not shown) | 12.7
11 | COC(=O)c1ccc(NC(=O)Cc2ccc(C)cc2)cc1 | 16
12 | CCOc1ccc(NCc2cc3c(C(C)(C)C)nn(-c4ccccc4)c3[nH]c2=O)cc1 | 10.8
13 | CC1=C(C(=O)OCCOC(C)C)C(c2cccc3ccccc23)NC(=O)N1 (stereo not shown) | 12.4
14 | Cn1c(=O)[nH]c(=O)c2c1nc(N1CCCCCC1)n2CCCSc1nc2ccccc2o1 | 4.5
15 | Cc1ccc(N2CCN(S(=O)(=O)c3ccc(F)cc3)CC2)c(C)c1 | 14.9
16 | Cc1noc(C)c1CSc1nc2ccccc2[nH]1 | 9.7
17 | CCn1cc(C(=O)N2CCCC(N3CCN(c4cccc(C(F)(F)F)c4)CC3)C2)cn1 (stereo not shown) | 6.11
18 | O=C(CSc1nc2ccccc2o1)Nc1nc2ccc(Br)cc2s1 | 5.62
19 | N#CCCN(CCC#N)C(=O)COc1ccc(Cl)cc1Cl | -2.98
20 | O=c1c2ccccc2c2ccccc2c(=O)n1Cc1ccco1 | 15.3

Row | Structure (SMILES) | hERG current change (%, negative = inhibition) at 1uM [%]
21 | Cc1ccc[n+](/C(=C\C(=C=[N-])C#N)C(=O)c2ccc(Cl)cc2)c1 | -1.09
22 | COc1ccc(S(=O)(=O)NC(C)C(=O)NCc2ccncc2)cc1C (stereo not shown) | 17.2
23 | Cc1nn(CC2CC2)c(=O)n1-c1ccc(C(C)C)cc1 | 12.2
24 | CCc1cccc(NS(=O)(=O)c2c(C)[nH]c(=O)[nH]c2=O)c1 | 14.7
25 | CCN(C(=O)CN1c2ccccc2CC1C)c1c(N)n(Cc2ccccc2)c(=O)[nH]c1=O (stereo not shown) | 13.9
26 | CCOc1[nH]n(-c2ccccc2)c(=O)c1C=NCc1ccncc1 | -11.8
27 | COCCn1c(=NC(=O)c2nc3ccccc3s2)sc2cc(S(C)(=O)=O)ccc21 | -10.7
28 | Br.c1ccc(NNC2=NCCS2)cc1 | 14.2
29 | CC1(C)CC(N2CCN(Cc3ccccc3)CC2)=CC(=[N+]2CCCCC2)C1.[I-] | 8.14
30 | O=C1CCC(=O)N1OCCCCOc1ccccc1 | 1.53
31 | CCc1ccccc1NC(=S)N(Cc1cccnc1)Cc1ccco1 | 4.57
32 | COc1cc2c(cc1OC)C(NC(=O)C(F)(F)F)CNC2=O (stereo not shown) | 16.2
33 | COc1ccc(NC(=O)CS(=O)CC(=O)Nc2cccnc2)cc1 (stereo not shown) | 13.5
34 | COc1ccccc1NC(=O)C1CCN(S(=O)(=O)c2ccc3c(c2)NC(=O)CO3)CC1 | 15.7
35 | CCn1nnnc1SCC(=O)Nc1nc2ccc(OC)cc2s1 | 7.19
36 | COc1ccc(CC(=O)Nc2cccc(-c3nnc(-c4cccc(C)c4)o3)c2)cc1OC | 16.9
37 | COc1nc(Nc2ccc([N+](=O)[O-])cc2)nc(NC2CCCCC2)n1 | 11.2
38 | CCCn1c(SCC(=O)NC2CC2)nnc1-c1ccccn1 | 5.68
39 | CC1CCC(C(C)C)C(OCC(O)CN2CCN(Cc3ccccc3)CC2)C1.Cl (stereo not shown) | -25.2
40 | CCCCn1c(O)c(N=NC(=O)c2ccccc2NS(=O)(=O)c2cccs2)c2ccccc21 | 10.7

Row | Structure (SMILES) | hERG current change (%, negative = inhibition) at 1uM [%]
41 | CCOC(=O)CC(NC(=O)C(CC)c1ccccc1)c1ccccc1Cl (stereo not shown) | 10.5
42 | COc1ccccc1OCc1csc(N)n1 | 9.14
43 | COc1ccc(-c2noc(CN(C)Cc3ccccc3)n2)cc1 | 9.28
44 | O=C(NCCN1CCOCC1)c1ccc(/C=C2\Sc3ccccc3N(Cc3ccccc3F)C2=O)cc1 | 12.3
45 | Cc1[nH]c2ccccc2c1C(=O)/C=C/c1ccccc1Cl | 14.6
46 | CCC1(O)CC(c2ccccc2)=NN1C(=O)c1ccccc1F (stereo not shown) | 12.6
47 | CCOC(=O)c1ccc(NC(c2ccc(N(C)C)cc2)P(=O)(OC(C)C)OC(C)C)cc1 (stereo not shown) | 8.88
48 | CC(c1ccncn1)N(C)Cc1nc(-c2ccc(C(F)(F)F)cc2)no1 (stereo not shown) | 13.6
49 | CC(C)c1c(O)nc(SCCN2CCOCC2)[nH]c1=O.Cl | 9.47
50 | CCC(C)(C(=O)NC1CCCCC1)N(CC1CCCO1)C(=O)c1ccccn1 (stereo not shown) | -80.8
51 | Cc1ccc(OCCN(C)C(=O)CC2C(=O)NCCN2CC(C)(C)C)cc1 (stereo not shown) | 9.6
52 | O=C(CCc1ccccc1)NNC(=O)c1ccccc1F | 0.134
53 | COc1cccc(C(=O)NCCS(=O)(=O)NCc2ccccn2)c1 | 9.36
54 | CC(C)C(NC(=O)OCc1ccccc1)C(=O)NC1CCCCC1 (stereo not shown) | 9.47
55 | O=C1N[C@@H](Cc2cn(S(=O)(=O)c3ccccc3)c3ccccc23)C(=O)N[C@H]1Cc1ccccc1 | 10.2
56 | CCCc1n[nH]c(=O)c2c1nnn2Cc1ccccc1F | 12
57 | Cc1nc2ccc(-c3nc4cc(N)ccc4o3)cc2[nH]1 | 12.5
58 | CCN(CC)S(=O)(=O)c1cc(C(=O)OCC(=O)Nc2c(F)cccc2F)ccc1F | 6
